The results in this text go back to article PMC12820563.

The list shows a part of the results. The list includes weakly bound sequences.

The target in the assay is T1, MBP-FoxP3dN (UniProt Q99JB6).
T1 sequence: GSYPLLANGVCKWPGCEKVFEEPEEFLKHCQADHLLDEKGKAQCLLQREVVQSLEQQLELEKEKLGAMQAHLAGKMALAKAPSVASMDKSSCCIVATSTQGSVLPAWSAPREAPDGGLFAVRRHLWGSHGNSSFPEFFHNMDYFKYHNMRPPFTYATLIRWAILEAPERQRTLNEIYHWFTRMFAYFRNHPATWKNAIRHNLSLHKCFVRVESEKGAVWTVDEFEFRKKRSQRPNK
The assay can be described thus: PD-seq (MBP pull-down with sequencing). As to conditions: 20 mM Tris-HCl pH 7.5, 100 mM NaCl, 1.5 mM MgCl2, 0.4 uM protein, 0.1 uM dsDNA library, 30 min, room temperature, amylose pull-down; high values mean tight binding; double strand, one strand shown.
As to “GATGATTGTTCTCCCAGCTGATGAATTGCAATAGTCGAGTAAACAAATTTTCCTAATCTTTCTGTTCAAGCGCCATCTAC”, the binding signal (RPM ratio (pull-down/input)) came out at 1.23.

With “GATGATTGTTCTCCCAGCTGATGAATTCATAAAATCGAGTAAACAAATTTTCCTAATCTTTCTGTTCAAGCGCCATCTAC”, the binding signal (RPM ratio (pull-down/input)) was found to be 0.176.

For the sequence “GATGATTGTTCTCCCAGCTGATGAATTTGTCGGGTCGAGTAAACAAATTTTCCTAATCTTTCTGTTCAAGCGCCATCTAC”, the binding signal (RPM ratio (pull-down/input)) amounted to 3.54.

Regarding “GATGATTGTTCTCCCAGCTGATGAATTAACCCAATCGAGTAAACAAATTTTCCTAATCTTTCTGTTCAAGCGCCATCTAC”, the binding signal (RPM ratio (pull-down/input)) was 0.279.

For “GATGATTGTTCTCCCAGCTGATGAATTGGCTAATTCGAGTAAACAAATTTTCCTAATCTTTCTGTTCAAGCGCCATCTAC”, the binding signal (RPM ratio (pull-down/input)) came to 0.321.

Take “GATGATTGTTCTCCCAGCTGATGAATTGTACAGTTCGAGTAAACAAATTTTCCTAATCTTTCTGTTCAAGCGCCATCTAC”: the binding signal (RPM ratio (pull-down/input)) was found to be 0.453.

As for “GATGATTGTTCTCCCAGCTGATGAATTTGTTAAGTCGAGTAAACAAATTTTCCTAATCTTTCTGTTCAAGCGCCATCTAC”, the binding signal (RPM ratio (pull-down/input)) was found to be 2.25.

On to “GATGATTGTTCTCCCAGCTGATGAATTGGGTTCATCGAGTAAACAAATTTTCCTAATCTTTCTGTTCAAGCGCCATCTAC”, for which the binding signal (RPM ratio (pull-down/input)) amounted to 0.504.

As for “GATGATTGTTCTCCCAGCTGATGAATTCTACCTATCGAGTAAACAAATTTTCCTAATCTTTCTGTTCAAGCGCCATCTAC”, the binding signal (RPM ratio (pull-down/input)) turned out to be 0.384.

As for “GATGATTGTTCTCCCAGCTGATGAATTCGGCGGATCGAGTAAACAAATTTTCCTAATCTTTCTGTTCAAGCGCCATCTAC”, the binding signal (RPM ratio (pull-down/input)) was determined as 0.282.

Turning to “GATGATTGTTCTCCCAGCTGATGAATTATGGGTATCGAGTAAACAAATTTTCCTAATCTTTCTGTTCAAGCGCCATCTAC”, the binding signal (RPM ratio (pull-down/input)) was found to be 0.849.

Turning to “GATGATTGTTCTCCCAGCTGATGAATTGCTTAAGTCGAGTAAACAAATTTTCCTAATCTTTCTGTTCAAGCGCCATCTAC”, the binding signal (RPM ratio (pull-down/input)) worked out at 0.396.

Turning to “GATGATTGTTCTCCCAGCTGATGAATTATCTTATTCGAGTAAACAAATTTTCCTAATCTTTCTGTTCAAGCGCCATCTAC”, the binding signal (RPM ratio (pull-down/input)) is 0.463.

Take “GATGATTGTTCTCCCAGCTGATGAATTCCTTCCATCGAGTAAACAAATTTTCCTAATCTTTCTGTTCAAGCGCCATCTAC”: the binding signal (RPM ratio (pull-down/input)) worked out at 0.243.

Take “GATGATTGTTCTCCCAGCTGATGAATTGGCTCACTCGAGTAAACAAATTTTCCTAATCTTTCTGTTCAAGCGCCATCTAC”: the binding signal (RPM ratio (pull-down/input)) worked out at 0.347.

Regarding “GATGATTGTTCTCCCAGCTGATGAATTTTGCTCTTCGAGTAAACAAATTTTCCTAATCTTTCTGTTCAAGCGCCATCTAC”, the binding signal (RPM ratio (pull-down/input)) is 0.48.

“GATGATTGTTCTCCCAGCTGATGAATTAATTGTTTCGAGTAAACAAATTTTCCTAATCTTTCTGTTCAAGCGCCATCTAC”: the binding signal (RPM ratio (pull-down/input)) is 3.75.

“GATGATTGTTCTCCCAGCTGATGAATTAACTGCATCGAGTAAACAAATTTTCCTAATCTTTCTGTTCAAGCGCCATCTAC”: the binding signal (RPM ratio (pull-down/input)) worked out at 0.97.
